# Data published in PubChem BioAssay AID686978 (National Center for Advancing Translational Sciences (NCATS), 2013).
# Out of some 420,000 compounds screened, about 64,000 (15%) were called active. This list was built around the results that the source calls inconclusive (neither active nor inactive); the mix of calls is not that of the screen. The call rests on the fitted dose curve; in most records, active means well fitted inhibition curve with a large enough effect; inconclusive means small, poorly fitted or top-dose-only effect; inactive means flat fitted curve, though single readings scatter. Potencies of inconclusive entries are left out as doubtful fits.
# Assay: qHTS for Inhibitors of human tyrosyl-DNA phosphodiesterase 1 (TDP1): qHTS in cells in absence of CPT; further: nearly all actives have a fitted effect of over 55% in size
# Settings: DT40 Tdp1-/- hTDP1 cells, no CPT, ATP luminescence, 48 h; activity change, negative = growth inhibition: at 46.2 µM (top of the series)
# How it was run: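 Growth kinetics read by CellTiter-Glo luminescence after ≥48 hr at 37 °C. Cells: DT40 Tdp1-/- stably carrying human TDP1, 400 per well, compound exposure in the absence of CPT (DMSO vehicle).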
# On the % scale 0 is the no-effect control and ±100 the full control effect; potency means the concentration at half of the fitted maximal effect; tags describe the fitted curve by direction and shape.
SMILES,Potency,"activity change, negative = growth inhibition"
COc1ccc(CCNc2nc(SCc3ccccc3Cl)nc3ccccc23)cc1OC,active: 4.61 µM,–
CC(C)COc1ccc(C(=O)NC(Cc2c[nH]c3ccccc23)C(=O)NN)cc1 (configuration not stated),"inconclusive [inhibitor, single point]",–
Nc1c(C(=O)NCC2CCCO2)c2nc3ccccc3nc2n1/N=C/c1ccncc1 (configuration not stated),active: 1.64 µM,–
CC1CCCCN1CC(=O)Nc1ccc(N2CCCCCC2)cc1 (configuration not stated),"inconclusive [inhibitor, single point]",–
COc1ccc(O)c(CN2CCOc3c(cc(-c4cccc(OC)n4)cc3OC)C2)c1,"inconclusive [inhibitor, single point]",–
CSc1ccc(C2NC(=O)CCC2[N+](=O)[O-])cc1 (configuration not stated),–,inactive: 14.9%
COc1ccccc1NC(=O)c1cc(C(=O)Nc2ccccc2OC)n(C)n1,"inconclusive [inhibitor, single point]",–
O=C(Nc1cc(Cl)cc(Cl)c1)N1CCCC1,"inconclusive [inhibitor, single point]",–
Cc1cccc(NC(=O)C2CC(=O)n3cnnc3S2)c1 (configuration not stated),active: 5.8 µM,–
O=C(NCC(c1ccco1)N1CCCCC1)c1ccc(NS(=O)(=O)c2ccc(F)cc2)cc1 (configuration not stated),"inconclusive [inhibitor, single point]",–
C=CCSc1nnc(CCc2ccccc2)n1N,–,inactive: -1.52%
CC(=O)c1cc2c(C)c(C(=O)c3ccccc3)oc2cc1O,"inconclusive [inhibitor, single point]",–
O=C(Nc1ccc(F)cc1)C(c1ccccc1OC(F)(F)F)N1CCN(c2cccc(C(F)(F)F)n2)CC1 (configuration not stated),"inconclusive [inhibitor, single point]",–
CCSC1=N/C(=C\c2ccc(OC)cc2)C(=O)N1,"inconclusive [inhibitor, partial curve]",–
CCN(CC)S(=O)(=O)c1ccc(N2CCCC2)c(NC(=O)c2c(-c3ccccc3)noc2C)c1,"inconclusive [inhibitor, single point]",–
CN(C)CCNc1nc(Oc2cccc(F)c2)c2sccc2n1,"inconclusive [inhibitor, single point]",–
N#CC1=C(N)C(C#N)(C#N)C(c2ccc[nH]2)C2CCCC=C12 (configuration not stated),"inconclusive [inhibitor, single point]",–
CCN(CC)C(=O)C1=C(C)Nc2nnnn2C1c1cccnc1 (configuration not stated),–,inactive: 4.4%
Cc1ccc(C(=O)Nc2cc(=O)n(C)c(=O)n2C)o1,–,inactive: 7.65%
CCc1nnc(NC(=O)c2ccc(Br)c(S(=O)(=O)N3CCOCC3)c2)s1,–,inactive: -29.4%
O=C(Nc1cc(Br)ccc1O)c1cc(-c2ccco2)on1,"inconclusive [inhibitor, single point]",–
COc1cc(Cl)c(NS(=O)(=O)c2ccc3[nH]c(=O)ccc3c2)c(OC)c1,"inconclusive [inhibitor, single point]",–
Cc1ccc(-n2c(O)c(/C=N/NC(=O)C3COc4ccccc4O3)c3ccccc3c2=O)cc1 (configuration not stated),active: 25.9 µM,–
COCCNC(=O)C1(C)CCN(Cc2ccc3ccccc3c2Br)C1 (configuration not stated),active: 10.3 µM,–

SMILES,Potency,"activity change, negative = growth inhibition"
Cc1ccc(-c2nnc(N3CCN(C(=O)c4ccco4)CC3)c3ccccc23)cc1,"inconclusive [inhibitor, single point]",–
CC(C)(C)CC(=O)Nc1ccccc1N1CCN(c2ccc(F)cc2)CC1,"inconclusive [inhibitor, single point]",–
COc1ccc(C2CC(c3cccs3)=NN2C(=O)CSc2nc(=O)n3ccc(C)cc3n2)cc1 (configuration not stated),active: 5.8 µM,–
Cc1c(Cc2c(Cl)cccc2Cl)c(=O)ccn1C(C)c1ccccc1 (configuration not stated),"inconclusive [inhibitor, single point]",–
COc1ccc(/C=N\NC(=O)C2=NNC(=O)C2C)cc1 (configuration not stated),–,inactive: -27.2%
COc1ccc(C2CC(=O)c3c([nH]c(C(=O)OC4CCCC4)c3C)C2)cc1OC (configuration not stated),–,inactive: -12.6%
Cc1cccc(-n2ccc(=O)c(C(=O)Nc3ccc(S(=O)(=O)Nc4onc(C)c4C)cc3)n2)c1,–,inactive: -11.5%
O=C(O)C1CCN(S(=O)(=O)N2CCOCC2)CC1,–,inactive: 0.819%
CN(C(=O)CN1C(=O)S/C(=C\c2ccccc2)C1=O)C1CCS(=O)(=O)C1 (configuration not stated),–,inactive: -4.1%
CC(=O)NC(c1ccccc1)c1c(O)ccc2ccccc12 (configuration not stated),"inconclusive [inhibitor, single point]",–
CC(C)c1nc2cc(C(=O)NC(c3cccnc3)C(F)(F)F)ccc2o1 (configuration not stated),"inconclusive [inhibitor, single point]",–
CO/N=C/CC(=O)c1ccc(OC)cc1,–,inactive: -8.75%
CN1C(=O)NC(c2ccc(O)cc2)C2=C1CN(c1ccccc1)C2=O (configuration not stated),"inconclusive [inhibitor, single point]",–
Cc1cc(C)c(C(=O)NC2CC(C)(C)Cc3c2cnn3-c2cccc(F)c2)[nH]1 (configuration not stated),"inconclusive [inhibitor, single point]",–
CCOC(=O)[C@]12CCCC=C1N(CCC1=CCCCC1)C(=O)[C@H](CC(=O)NCCCN1CCCC1=O)C2,"inconclusive [inhibitor, single point]",–
CCOc1ccc(NC(=O)C(CC)n2nc(-c3ccc(C)c(C)c3)ccc2=O)cc1 (configuration not stated),"inconclusive [inhibitor, single point]",–
CCOc1ccc(OCC)c(NC(=O)CN(c2ccc(C)cc2)S(=O)(=O)c2c(C)n[nH]c2C)c1,active: 29.1 µM,–
Cc1ccc2c(Cl)cc(Cl)c(OCC(=O)Nc3cccc(S(N)(=O)=O)c3)c2n1,–,inactive: -17.9%
S=C(NCc1cccs1)NCC1CCCO1 (configuration not stated),–,inactive: -8.02%
CCOC(=O)c1c(C)[nH]c(C)c1S(=O)(=O)NCCN1CCN(c2cc(Cl)ccc2C)CC1,active: 13 µM,–
CCC(CC)C(=O)Nc1c2c(nn1-c1ccc(F)cc1)CS(=O)(=O)C2,–,inactive: 2.06%
Cn1cccc1Cc1nnc(SCC(=O)N2CCCC2)n1CCc1ccccc1,–,inactive: -24.5%
CN(C)S(=O)(=O)c1ccc(Cl)c(C(=O)NC2CCCCCCC2)c1,"inconclusive [inhibitor, single point]",–
